Out of some 46,000 compounds screened, about 60 (0.1%) were called active. Not shown: some 3% with an inconclusive outcome. Calls come from the whole dose curve; as a rule, active = well fitted inhibition curve with a large enough effect; inconclusive = small, poorly fitted or top-dose-only effect; inactive = no such curve, though single readings can be large or run the other way. The list shows a part of the results.
Assay: Primary qHTS assay for Inhibitors of ovarian cancer metastasis using an organotypic tumor microenvironment (TME) model.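 For activity change, negative = inhibition: plate controls were DMSO wells for no effect and tomatine positive control wells for full effect.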 Note: nearly all actives have a fitted effect of over 65% in size.
Conditions: SKOV3ip1-GFP adhesion/invasion on 3D omental model, fluorescence; series mostly up to 45.8 µM; activity change, negative = inhibition: at the top concentration
Procedure, shortened: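 A 3D layer of primary human omental fibroblasts, mesothelial cells, fibronectin and collagen I, grown 48 hr, received SKOV3ip1-GFP cells in serum-free medium plus compounds at 0.36-46 umol/L. After 2 hr RT and 16 hr 37 C, fixed adherent GFP cells were counted; normalized to DMSO and tomatine.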

Activity change, negative = inhibition, inactive:
COc1cc2ccccc2cc1C(=O)N1CCN(c2nc3c(C)cc(C)cc3s2)CC1 -25%, O=C(C1CCC1)N1CCc2cc(S(=O)(=O)N3CCN(c4ccccc4)CC3)ccc21 0.306%, Cc1ccc2nc(-c3ccccc3O)c(Nc3ccccc3C)n2c1 -3.98%, CC1CCN(C(=O)Cn2cc(SCc3cccc(F)c3)c3ccccc32)CC1 -5.71%, CCOC(=O)c1c(NC(=O)CS(=O)(=O)c2ccc(C)cc2)sc2c1CCC(C)C2 (stereo unspecified) 3.45%, CCC(C)NC(=O)Cn1c(=O)n(CC2CCC(C(=O)NC)CC2)c(=O)c2sccc21 (stereo unspecified) 7.68%, CC(C)(C)c1ccc(-c2nc3cc(NC(=O)c4cc5ccccc5o4)ccc3o2)cc1 -13.5%, COc1ccc(CNC(=O)CCc2cn(Cc3cc(C)ccc3C)c3ccccc23)cc1OC 5.29%, O=C(Cn1ccn(-c2cccc(Cl)c2)c(=O)c1=O)NCCc1ccccc1 -3.39%, COc1ccc(NC(=O)NC2COc3ccccc3C2)c(OC)c1 (stereo unspecified) -11%, COc1ccc(N2CCN(C(=O)CCc3c(C)nc4c(-c5ccccc5)c(C)nn4c3C)CC2)cc1 -11.5%, COc1ccccc1CNC(=O)CCCCn1c(=O)c2ccccc2n(Cc2c(C)cc(C)cc2C)c1=O 3.98%, Cc1cn([C@H]2C=C[C@@H](CO)O2)c(=O)[nH]c1=O -2.41% [at 92.2 µM], COc1ccccc1CNC(=O)CCc1c(C)c2ccc(OC)c(C)c2oc1=O 8.55%, Cc1c(C(=O)Nc2ccc(F)c(F)c2)oc2ccc(S(=O)(=O)N3CCCCC3)cc12 -0.859%, O=S(=O)(NCC(c1ccco1)S(=O)(=O)c1ccccc1)c1ccccc1 (stereo unspecified) -1.53%, CN(CC(=O)Nc1cccc(Cl)c1)S(=O)(=O)c1ccc2[nH]c3c(c2c1)CCCC3 -6.29%, CCOc1ccc(S(=O)(=O)N(CC(=O)Nc2cccnc2)c2ccccc2)cc1 7.77%, Cc1cc(N2CCN(C)CC2)nc2ccc(NC(=O)Nc3ccccc3Br)cc12 -9.93%, COc1ccc(CCNC(=O)c2ccc3c(c2)N(Cc2ccc(C)cc2)CCS3)cc1OC -10.8%, Cc1cccc(NC(=O)c2oc3c(c2C)-c2[nH]ncc2CC3)c1C 0.239%, CCOC(=O)C1CCN(c2c(C(=O)c3ccc(OCC)cc3)cnc3ccc(OC)cc23)CC1 -1.88%, CCc1nn2c(-c3ccccc3OC)ccnc2c1-c1ccc(F)cc1 32.9%, CCn1c(=NC(=O)c2ccc(S(=O)(=O)N3CCCCC3)cc2)sc2cccc(OC)c21 -21.6%, CCOC(=O)c1cccc(NC(=O)CC(c2cc(OC)c(OC)c(OC)c2)N2Cc3ccccc3C2=O)c1 (stereo unspecified) 8.12%, COc1c(C)cc(S(=O)(=O)Nc2cccc(-c3ccc(N4CCOCC4)nn3)c2)c(C)c1C 14.6%, CCOc1ccc(NC(=O)CN2CCN(Cc3ccccc3)S2(=O)=O)cc1 -3.52%, Cc1c(Cl)cccc1NC(=O)CC(c1cccs1)N1Cc2ccccc2C1=O (stereo unspecified) -16.6%, CC(NC(=O)CSc1n[nH]c(-c2ccccc2Cl)n1)c1nc2ccccc2n1C (stereo unspecified) -28%, CCCCNC(=O)C1CCN(C(=O)N2CC(C)Oc3ccc(Cl)cc32)CC1 (stereo unspecified) 9.98%, N#C/C(=C\c1ccc(F)cc1)C(=O)NCC1CCCO1 (stereo unspecified) -6.8%, CCOc1ccccc1NC(=O)Cc1coc2c(C)c(C)ccc12 3.12%, CCOc1ccccc1NC(=O)CN1C(=O)COc2ccc(S(=O)(=O)N3CCCCCC3)cc21 6.87%, Cc1cccc(NC(=O)c2ccc3nc(CCc4ccccc4)oc3c2)c1C -5.81%, Cc1cccc(N2CCN(c3ccc(NC(=O)c4ccccc4)cc3C(=O)O)CC2C)c1 (stereo unspecified) 0.319%, COc1ccc(-c2noc(CSc3nc(N)cc(=O)[nH]3)n2)cc1 -9.05%, Cc1cc2[nH]c(=O)c(=O)[nH]c2cc1S(=O)(=O)Nc1ccc(OC(F)(F)F)cc1 -4.82%, COc1cccc(CNC(=O)C(Cc2ccccc2)NS(=O)(=O)c2ccc3c(c2)oc(=O)n3C)c1 (stereo unspecified) 4.7%, COc1ccccc1C(=O)Nc1onc2c1CCCC2 0.159%, CCOC(=O)c1ccc(NC(=O)CN2Cc3ccccc3C2=O)cc1 2.56%, Cc1cc(O)c2c(C)c(CC(=O)N3CCCCC3)c(=O)oc2c1 16.8%, CCCS(=O)(=O)N1CCC(N2CCN(Cc3ccc(F)cc3)C(=O)C2=O)CC1 -0.51%, Cc1cc(Nc2cccc(Cl)c2)nc2ccc(NC(=O)c3cccc(N(C)C)c3)cc12 -3.89%, O=C(NCc1ccc(F)cc1)c1ccc2c(c1)nc1n2CCCCC1 -2.04%, Cc1ncc(CO)c2c1Oc1nc(-c3ccc(F)cc3)nc(SCc3ccc(F)cc3Cl)c1C2 4.35%, Cc1ccccc1Cn1c2ccccc2c2cnn(CC(=O)N3CCC(C)CC3)c(=O)c21 -5.25%, Cc1ccc(S(=O)(=O)NCC(Nc2cccc(Cl)c2)c2ccccc2)cc1 (stereo unspecified) -4.59%, CCOc1ccc(-c2cccc(NS(=O)(=O)c3ccccc3C(F)(F)F)c2)nn1 -8.25%, Cc1ccc(NC(=O)Cn2cc(C(=O)c3ccco3)c3ccccc32)cc1 -5.95%, O=S(=O)(c1ccc2nc(Nc3cccc(F)c3)ccc2c1)N1CCCC1 -2.82%, CCn1cc(C(=O)N2CCN(c3ccc(OC)cc3)CC2)c2cc(OC)c(OC)cc2c1=O 2.46%, CCOc1ccccc1C1C(C(=O)Nc2ccccc2)=C(C)Nc2c(C(=O)Nc3ccc(F)cc3)cnn21 (stereo unspecified) -0.955%, CCc1ccc(NC(=O)N2CCC(N3CCN(Cc4ccc(C)cc4)C(=O)C3=O)CC2)cc1 -1.16%, Cc1nn(CC(=O)NCCc2ccccc2)c(=O)c2c1sc1ccccc12 14.2%, CCOc1ccccc1NC(=O)CSC1=Nc2ccccc2C2=NC(CC(=O)NCc3ccc4c(c3)OCO4)C(=O)N12 (stereo unspecified) 7.13%, CCC(C)NC(=O)Cn1c(=O)n(-c2ccc(C)c(C)c2)c(=O)c2c(C)c(C(=O)N(CC)CC)sc21 (stereo unspecified) -17%, CC(C)(C)c1ccc(C(=O)N2CCN(CCc3ccccn3)CC2)cc1 2.66%, CC(=O)N1c2ccc(S(=O)(=O)N(C)CC(=O)N(Cc3ccccc3)C(C)C)cc2CC1C (stereo unspecified) 4.13%, CCN(Cc1ccccc1)Cc1c(O)ccc2oc(C)c(C(=O)Nc3ccccc3C)c12 -13.5%, O=C(Cc1ccccc1)Nc1nnc2n1CCS2 -5.62%, COc1ccccc1CN1C(=O)C(=O)c2cccc(C)c21 -3.47%, Cc1cc2nc(N(Cc3cccnc3)C(=O)c3ccc(Cl)s3)sc2cc1C 0.851%

outcome, inactive:
CCc1ccccc1NC(=O)N1CCN(c2nnc(C)c3c(C)n(-c4ccccc4)nc23)CC1, Cc1cccc(NC(=O)C2CCN(S(=O)(=O)c3cccc4nsnc34)CC2)c1, CCCOc1ccc(-c2nc3ccccc3c(=O)o2)cc1, O=c1cc(-c2ccccc2)nc(SCc2nc(-c3ccc(C(F)(F)F)cc3)no2)[nH]1, Cc1c(C(=O)Nc2nc(-c3ccc(F)cc3)ns2)oc2ccc(Br)cc12, CC(C)c1ccc(NC(=O)C2CCN(S(=O)(=O)c3cccc4nsnc34)CC2)cc1, COc1ccc(CNC(=O)Cn2c(=O)oc3cc(S(=O)(=O)N4CCCCCC4)ccc32)cc1, COc1ccc2c(c1)cc(CNc1ccc(OC)c(OC)c1)c(=O)n2CC(=O)Nc1ccc(F)cc1, Cc1cc(C)n2nc(SCC(=O)Nc3cc(Cl)ccc3C)nc2n1, CC1=C(C(N)=O)C(c2ccc(C(C)C)cc2)n2nc(SCc3ccccc3)nc2N1 (stereo unspecified), COc1ccc(CCNc2nc(-c3ccc(C)cc3)cc(C(F)F)n2)cc1OC, Oc1c(C(c2ccccc2F)N2CCOCC2)sc2nc(-c3ccco3)nn12 (stereo unspecified), COC(=O)c1ccc(NC(=O)CCc2c(C)nc3c(c(C)nn3-c3ccc(C)cc3)c2C)cc1, Cc1nc2c(C(=O)NCc3ccccc3Cl)c[nH]n2c(=O)c1Cc1cccc(Cl)c1, CCN(c1ccccc1)S(=O)(=O)c1ccc2[nH]cc(C(=O)NC3CCCCC3)c(=O)c2c1, CCOc1ccccc1-n1c(C)nc2cc(C(=O)O)ccc21, COc1cccc(NC(=O)CSc2cc(=O)n(C)c3ccc(Cl)cc23)c1, Cc1cc(=O)[nH]c2nnc(SCc3ccc(Cl)c(Cl)c3)n12, CCOC(=O)N1CCc2c(sc(NCc3sccc3C)c2C(=O)Nc2cc(OC)ccc2OC)C1, CCCCN(C)CCCNC(=O)CN1C(=O)COc2ccc(S(=O)(=O)N3CCC(C)CC3)cc21, Cc1ccc(CCNC(=O)C(CC(C)C)NS(=O)(=O)c2ccc3c(c2)oc(=O)n3C)cc1 (stereo unspecified), Cn1cnc(S(=O)(=O)N2CCCC(C(=O)NCc3ccccc3Cl)C2)c1 (stereo unspecified), COc1ccc(NC(=O)c2c(C(=O)Nc3ccccc3)sc3nc(C)cc(=O)n23)cc1, CCOc1ccc(C(=O)c2cn(CC(=O)Nc3ccc(F)c(F)c3)c3cc4c(cc3c2=O)OCCO4)cc1, CCOc1ccc(C2C(=O)N(C3CCCCC3)CC(=O)N2CCC2=CCCCC2)cc1OC (stereo unspecified), COc1cccc(NC(=O)CCc2nc(-c3cccs3)no2)c1, CSc1ncc(Cl)c(C(=O)Nc2c(C(=O)c3ccc(C)c(F)c3)oc3ccccc23)n1, Cc1cccc(OC(=O)c2cc(-c3ccc4c(c3)OCCO4)on2)c1C, COc1ccc(-c2noc(-c3nnn(-c4ccc(C(C)C)cc4)c3C)n2)cc1OC, O=C(Nc1ccccc1)c1ccc2c(O)c(S(=O)(=O)c3ccc(Cl)cc3)c(=O)[nH]c2c1, CCn1c(C(=O)N2CCCC(C(=O)N3CCN(c4ccccc4)CC3)C2)cc2sccc21 (stereo unspecified), COc1ccc(-c2cc3nccc(-c4cc(Cl)c(C)cc4O)n3n2)cc1, O=c1cc(-c2ccccc2)n2c(SCc3ccc(Br)cc3)nnc2[nH]1, COc1ccc(-n2ccnc(NCCc3ccc(Cl)cc3)c2=O)cc1OC
